# Measured values taken from PubChem BioAssay (NCATS).
# Where “and” joins values, the source holds several entries; their conditions need not be identical. Equal entries are not always repeated. This list was built around the results that the source calls inconclusive (neither active nor inactive); the mix of calls is not that of the screen. A potency beside an inconclusive call is a rough fit, not a confirmed value. The source holds several records for some structures; these can differ, active in one and inactive in another. Calls of active or inactive are those of the source. The call rests on the fitted dose curve; in most records, active means well fitted curve in the direction sought with a large enough effect; inconclusive means small, poorly fitted or top-dose-only effect, or another doubt; inactive means no such curve, though single readings can be large; an effect the other way counts as inactive or inconclusive.
# How the values were obtained:
# NIH3T3 = assay: Cytotoxic Profiling of Annotated Libraries Using Quantitative High-Throughput Screening (AID 1296008); conditions: Five cell lines viability, CellTiter-Glo ATP luminescence, 48-72 h; max response: stronger effect = lower value; further: nearly all actives have a fitted effect of over 60% in size
# Summary of the method: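 Compounds were pin-transferred onto cells and incubated 48 or 72 hr at 37 degree Celsius, 95% humidity. CellTiter-Glo was added, plates sat 10 min at room temperature, then ATP-coupled luminescence was imaged as the viability read-out.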
# MCC-13 = assay: qHTS assay to identify novel small-molecules to repurpose for Merkel cell carcinoma treatment (AID 1296009); conditions: MCC and control cell lines, CellTiter-Glo viability, 72 h; series mostly up to 46 µM; further: nearly all actives have a fitted effect of over 60% in size
# Summary of the method: (§1)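 Viability readout: ATP luminescence (CellTiter-Glo) after 72 hr drug exposure at 37 degree celsius. Dose-response format was 8 points for NPC and 11 points for MIPE; data normalized to in-plate controls.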
# MCC-26 = assay: as above; conditions: MCC and control cell lines, CellTiter-Glo viability, 72 h; series mostly up to 46 µM
# Summary of the method: as §1
# MKL-2 = assay: as above; conditions: MCC and control cell lines, CellTiter-Glo viability, 72 h; activity change, negative = cytotoxicity: at 46 µM (top of the series)
# Summary of the method: as §1
# CAOV3 = assay: Primary qHTS to identify gynecologic anti-cancer compounds using libraries of approved drugs and bioactive compounds (AID 1345084); conditions: Gynecologic cancer cell panel viability, ATPlite luminescence, 48 h; series mostly up to 57.5 µM; further: nearly all actives have a fitted effect of over 55% in size
# Summary of the method: (§2)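 Luminescence from the ATPlite ATP-monitoring reagent indicates viable cell number; lower signal means cytotoxicity. Cells received compound 16 h after seeding and were exposed for 48 h across five concentrations.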
# MKL-1 = assay: qHTS assay to identify novel small-molecules to repurpose for Merkel cell carcinoma treatment (AID 1296009); conditions: MCC and control cell lines, CellTiter-Glo viability, 72 h; series mostly up to 46 µM; further: nearly all actives have a fitted effect of over 60% in size
# Summary of the method: as §1
# UISO = assay: as above; conditions: MCC and control cell lines, CellTiter-Glo viability, 72 h; series mostly up to 46 µM
# Summary of the method: as §1
# C33A = assay: Primary qHTS to identify gynecologic anti-cancer compounds using libraries of approved drugs and bioactive compounds (AID 1345084); conditions: Gynecologic cancer cell panel viability, ATPlite luminescence, 48 h; series mostly up to 57.5 µM; further: nearly all actives have a fitted effect of over 55% in size
# Summary of the method: as §2
# WaGa = assay: qHTS assay to identify novel small-molecules to repurpose for Merkel cell carcinoma treatment (AID 1296009); conditions: MCC and control cell lines, CellTiter-Glo viability, 72 h; series mostly up to 46 µM; further: nearly all actives have a fitted effect of over 60% in size
# Summary of the method: as §1
# On the % scale 0 is the no-effect control and ±100 the full control effect; potency means the concentration at half of the fitted maximal effect; tags describe the fitted curve by direction and shape.
compound,measurement,setting,value
CNc1nccc(-c2cccnc2Oc2cc(C(=O)Nc3cccc(C(F)(F)F)c3)ccc2C)n1,Potency,NIH3T3,"inconclusive: 37.2 µM [inhibitor, single point] and active: 18.4 µM"
same,Potency,MCC-13,"inconclusive: 16.6 µM [inhibitor, partial curve]"
same,Potency,MCC-26,"inconclusive: 5.26 µM [inhibitor, partial curve]"
same,Potency,MKL-2,inactive
same,Potency,CAOV3,"inconclusive: 25.1 µM [cytotoxic, single point]"
Clc1ccc(C2(c3ccc(-c4cn[nH]c4)cc3)CCNCC2)cc1,Potency,NIH3T3,"inconclusive: 1.48 µM [inhibitor, full curve] and inconclusive: 5.8 µM [inhibitor, full curve]"
same,Potency,MCC-13,"inconclusive: 3.72 µM [inhibitor, full curve]"
same,Potency,MKL-1,"inconclusive: 16.6 µM [inhibitor, partial curve]"
same,Potency,UISO,"inconclusive: 6.62 µM [inhibitor, full curve]"
same,Potency,C33A,"inconclusive: 11.2 µM [cytotoxic, partial curve, poor fit]"
same,Potency,CAOV3,"inconclusive: 28.2 µM [cytotoxic, single point]"
Cn1cc(-c2[nH]c3cc(NC(=O)[C@H](N)C4CCCCC4)cc4c3c2C=NNC4=O)cn1,Potency,NIH3T3,"inconclusive: 20.6 µM [inhibitor, single point]"
same,Potency,MCC-13,"inconclusive: 26.4 µM [inhibitor, single point]"
same,Potency,MCC-26,"inconclusive: 18.7 µM [inhibitor, partial curve]"
same,Potency,MKL-2,"inconclusive: 0.235 µM [inhibitor, full curve]"
same,Potency,C33A,"inconclusive: 14.1 µM [cytotoxic, partial curve]"
same,Potency,CAOV3,"inconclusive: 31.6 µM [cytotoxic, single point]"
C=CC(=O)Nc1cccc(Oc2nc(Nc3ccc(N4CCN(C)CC4)cc3OC)ncc2Cl)c1,Potency,NIH3T3,active: 18.4 µM
same,Potency,MCC-26,active: 11.8 µM
same,Potency,UISO,"inconclusive: 3.72 µM [inhibitor, full curve]"
same,Potency,WaGa,active: 2.96 µM
same,Potency,CAOV3,"inconclusive: 22.4 µM [cytotoxic, partial curve, poor fit]"
COc1cc(NCc2ccc3nc(N)nc(N)c3c2C)cc(OC)c1OC,Potency,NIH3T3,active: 3.72 µM and active: 66.8 nM
same,Potency,MCC-13,"inconclusive: 0.188 µM [inhibitor, full curve]"
same,Potency,MCC-26,inactive
same,Potency,MKL-1,"inconclusive: 13.3 µM [inhibitor, partial curve, poor fit]"
same,Potency,MKL-2,"inconclusive: 1.33 µM [inhibitor, full curve]"
same,Potency,WaGa,active: 2.96 µM and active: 94.4 nM
same,Potency,C33A,inconclusive: 2.82 µM
Cc1n[nH]c(C)c1Cc1sc2c(c1C(=O)N1C[C@H](O)CO1)c(=O)n(C)c(=O)n2CC(C)C,Potency,NIH3T3,"inconclusive: 13.2 µM [inhibitor, partial curve, poor fit] and inconclusive: 25.9 µM [inhibitor, single point]"
CCCCN1CCC(CNC(=O)c2c3n(c4ccccc24)CCCO3)CC1,Potency,NIH3T3,"inconclusive: 37.2 µM [inhibitor, single point]"
same,Potency,MKL-1,"inconclusive: 29.6 µM [inhibitor, single point]"
same,Potency,MKL-2,"inconclusive: 20.9 µM [inhibitor, partial curve]"
same,Potency,WaGa,"inconclusive: 29.6 µM [inhibitor, single point]"
Cc1cc(Nc2nc(N[C@@H](C)c3ccc(F)cc3)c(C#N)cc2F)n[nH]1,Potency,NIH3T3,active: 3.72 µM and active: 4.11 µM
same,Potency,MCC-26,active: 7.43 µM
same,Potency,MKL-2,"inconclusive: 0.0526 µM [inhibitor, full curve]"
same,Potency,UISO,"inconclusive: 1.87 µM [inhibitor, full curve]"
same,Potency,WaGa,"inconclusive: 2.09 µM [inhibitor, full curve]"
same,Potency,CAOV3,"inconclusive: 10 µM [cytotoxic, partial curve, poor fit]"
CSc1cccc(Nc2ncc3cc(-c4c(Cl)cccc4Cl)c(=O)n(C)c3n2)c1,Potency,NIH3T3,active: 0.332 µM
same,Potency,MCC-26,"inconclusive: 1.87 µM [inhibitor, partial curve]"
same,Potency,UISO,"inconclusive: 0.833 µM [inhibitor, full curve]"
same,Potency,WaGa,inactive
Nc1ncnc2c1c(-c1cccc(OCc3ccccc3)c1)cn2C1CC(CN2CCCC2)C1 (configuration not stated),Potency,NIH3T3,active: 14.8 µM and active: 16.4 µM
same,Potency,MCC-26,"inconclusive: 26.4 µM [inhibitor, single point]"
same,Potency,MKL-1,"inconclusive: 26.4 µM [inhibitor, single point]"
same,Potency,UISO,active: 10.5 µM
same,Potency,WaGa,"inconclusive: 0.118 µM [inhibitor, full curve]"
same,Potency,CAOV3,"inconclusive: 25.1 µM [cytotoxic, single point]"
CCC(=O)NCC[C@@H]1CCc2ccc3c(c21)CCO3,outcome,NIH3T3,inactive
same,Potency,MKL-2,"inconclusive: 23.5 µM [inhibitor, single point]"
C=CC(=O)Nc1cc2c(Nc3ccc(F)c(Cl)c3)ncnc2cc1OCCCN1CCOCC1,Potency,NIH3T3,active: 4.73 µM
same,Potency,MKL-1,"inconclusive: 2.99 µM [inhibitor, full curve]"
same,Potency,MKL-2,"inconclusive: 2.37 µM [inhibitor, full curve]"
same,Potency,UISO,"inconclusive: 1.06 µM [inhibitor, full curve]"
same,Potency,WaGa,"inconclusive: 2.66 µM [inhibitor, full curve]"
same,Potency,C33A,"inconclusive: 7.94 µM [cytotoxic, full curve, poor fit]"
same,Potency,CAOV3,active: 10 µM
CN(C)C(=O)c1ccc(S(=O)(=O)c2ccc(NC(=O)[C@@](C)(O)C(F)(F)F)c(Cl)c2)cc1,Potency,NIH3T3,"inconclusive: 11.8 µM [inhibitor, single point]"
same,Potency,MKL-2,"inconclusive: 20.9 µM [inhibitor, single point]"
same,Potency,UISO,"inconclusive: 20.9 µM [inhibitor, partial curve]"
same,Potency,WaGa,"inconclusive: 7.43 µM [inhibitor, full curve]"
COc1cccc(N(C)C(=S)Oc2ccc3c(c2)CCCC3)n1,max response,NIH3T3,inactive: 2.09%
same,Potency,MKL-2,"inconclusive: 7.5 µM [inhibitor, partial curve, poor fit]"
O=C(Nc1cccc(Cl)c1)Nc1ncc(CCNc2ncnc3ccsc23)s1,Potency,NIH3T3,"inconclusive: 1.48 µM [inhibitor, full curve]"
same,Potency,MCC-13,"inconclusive: 2.35 µM [inhibitor, full curve]"
same,Potency,WaGa,"inconclusive: 0.264 µM [inhibitor, full curve]"
C[C@H](CCC(=O)O)[C@H]1CC[C@H]2[C@@H]3[C@H](O)C[C@@H]4C[C@H](O)CC[C@]4(C)[C@@H]3CC[C@]12C,outcome,NIH3T3,inactive
same,Potency,MKL-2,inactive
Cn1cnc2c(F)c(Nc3ccc(Br)cc3F)c(C(=O)NOCCO)cc21,Potency,NIH3T3,"inconclusive: 37.2 µM [inhibitor, single point] and inconclusive: 18.4 µM [inhibitor, single point]"
same,Potency,MCC-13,"inconclusive: 2.64 µM [inhibitor, partial curve]"
same,Potency,MKL-2,inactive
same,Potency,UISO,inactive
same,Potency,CAOV3,inactive
CCOC(=O)[C@H](CCc1ccccc1)N[C@H]1CCc2ccccc2N(CC(=O)O)C1=O,Potency,NIH3T3,"inconclusive: 23.7 µM [inhibitor, single point] and inconclusive: 33.2 µM [inhibitor, single point]"
same,Potency,MCC-26,"inconclusive: 23.5 µM [inhibitor, single point]"
same,Potency,MKL-2,"inconclusive: 26.4 µM [inhibitor, single point]"
same,Potency,UISO,"inconclusive: 26.4 µM [inhibitor, single point]"
same,Potency,WaGa,"inconclusive: 26.4 µM [inhibitor, single point]"
same,Potency,C33A,"inconclusive: 39.8 µM [cytotoxic, single point]"
same,Potency,CAOV3,"inconclusive: 25.1 µM [cytotoxic, single point]"
Cn1c(CNc2ccc(C(=N)N)cc2)nc2cc(C(=O)N(CCC(=O)O)c3ccccn3)ccc21,Potency,NIH3T3,"inconclusive: 18.4 µM [inhibitor, partial curve, poor fit]"
CNC(=O)c1ccc2c(C(=Nc3cccc(CN(C)C)c3)c3ccccc3)c(O)[nH]c2c1,Potency,NIH3T3,active: 16.6 µM and active: 8.2 µM
same,Potency,MKL-2,inconclusive: 0.001 µM [inhibitor]
CN1CCCN(C(=O)c2cccc(-c3ccc(C=C4C(=O)Nc5ccc(Cl)cc54)o3)c2)CC1,Potency,NIH3T3,"inconclusive: 4.69 µM [inhibitor, full curve]"
same,Potency,MCC-13,"inconclusive: 14.8 µM [inhibitor, partial curve, poor fit]"
same,Potency,MCC-26,inactive
same,Potency,MKL-2,active: 16.6 µM
same,Potency,UISO,"inconclusive: 3.32 µM [inhibitor, full curve]"
COc1ccc(Cn2ccc3ccc(C(=O)NO)cc32)cc1,Potency,NIH3T3,"inconclusive: 25.9 µM [inhibitor, single point]"
same,Potency,MKL-1,"inconclusive: 14.8 µM [inhibitor, partial curve]"
same,Potency,WaGa,"inconclusive: 14.8 µM [inhibitor, partial curve]"
O=C(NC[C@H](O)CO)c1ccncc1Nc1ccc(I)cc1F,Potency,NIH3T3,active: 8.33 µM
same,Potency,MCC-13,"inconclusive: 0.743 µM [inhibitor, full curve]"
same,Potency,MKL-1,"inconclusive: 29.6 µM [inhibitor, single point]"
same,Potency,MKL-2,active: 6.62 µM
same,Potency,WaGa,inactive
Cc1ccc(NC(=O)c2ccc(CN3CCN(C)CC3)cc2)cc1Nc1nc(-c2cccnc2)cs1,Potency,NIH3T3,"inconclusive: 13.2 µM [inhibitor, partial curve]"
same,Potency,MKL-2,"inconclusive: 37.2 µM [inhibitor, single point]"
same,Potency,UISO,"inconclusive: 20.9 µM [inhibitor, single point]"
same,Potency,WaGa,"inconclusive: 20.9 µM [inhibitor, single point]"
